# Measured values reported in PubChem BioAssay AID1963576 (National Center for Advancing Translational Sciences (NCATS), 2024).
# Hit rate of the full screen: of about 46,000 compounds, about 60 (0.1%) were called active. Not shown: some 3% with an inconclusive outcome. Calls follow the shape of the dose curve; as a rule, active = well fitted inhibition curve with a large enough effect; inconclusive = small, poorly fitted or top-dose-only effect; inactive = no such curve, though single readings can be large or run the other way. The list shows a part of the results.
# Assay: Primary qHTS assay for Inhibitors of ovarian cancer metastasis using an organotypic tumor microenvironment (TME) model. Also: nearly all actives have a fitted effect of over 65% in size.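 As to activity change, negative = inhibition: plate controls were DMSO wells for no effect and tomatine positive control wells for full effect.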
# Conditions: SKOV3ip1-GFP adhesion/invasion on 3D omental model, fluorescence; series mostly up to 45.8 µM; activity change, negative = inhibition: at the top concentration
# Summary of the method: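 Primary human omental fibroblast/mesothelial 3D culture pre-formed 48 h. SKOV3ip1-GFP cells added with compounds (0.36-46 umol/L), incubated 2 h RT/16 h 37 C, fixed; GFP cells quantified at 488/509 nm.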
SMILES,outcome,"activity change, negative = inhibition"
CC(=O)c1c(C)oc2c1cc(NS(=O)(=O)c1c(C)cc(C)cc1C)c1ccccc12,inactive,
CCOC(=O)CSc1nc2cc(OC)c(OC)cc2c2nc(-c3ccccc3)nn12,inactive,
COC(=O)c1sccc1S(=O)(=O)N(CC(=O)NCc1ccc(C)cc1)c1ccc(C)c(C)c1,,inactive: -2.96%
O=C1CS(=O)(=O)C2(C(=O)N(Cc3ccccc3)c3ccccc32)N1c1ccc(F)c(Cl)c1 (stereo unspecified),inactive,
CCOc1ccc(S(=O)(=O)Nc2cccc(OC)c2)c2cccnc12,inactive,
COc1ccc(NS(=O)(=O)c2ccc3[nH]c(=O)ccc3c2)cc1OC,,inactive: -13.8%
COc1cccc(-n2nnc(-c3nc(-c4cccs4)no3)c2N)c1,,inactive: 6.3%
COc1ccccc1C(=O)Oc1c(Sc2ccccc2)c(C)nn1-c1ccccc1,,inactive: -3.87%
O=C(c1ccc(F)cc1)N1CCC[C@H](c2nc(-c3ccc(F)cc3)no2)C1,,inactive: 8.13%
COc1cc(OC)cc(C(=O)Nc2ccc3nc4n(c(=O)c3c2)CCCCC4)c1,,inactive: -4.44%
O=C(Nc1cccc(Cl)c1)c1cc(-c2ccc3c(c2)OCO3)on1,,inactive: -5.97%
Cc1ccc(CCNC(=O)CN2C(=O)COc3ccc(S(=O)(=O)N4CCCCCC4)cc32)cc1,,inactive: 9.83%
CN1C(=O)c2ccccc2Sc2ccc(NC(=O)NCc3ccc(Cl)cc3)cc21,,inactive: 1.18%
COc1ccc(S(=O)(=O)N(CC(=O)Nc2ccccc2Cl)Cc2ccccc2)cc1,inactive,
CCOc1ccc(N(CC)C(=O)CCc2nc(-c3ccccc3F)no2)cc1,,inactive: 1.59%
COc1ccc(C(=O)Nc2nc3ccccc3n2CCOc2ccc(Cl)cc2)cc1,,inactive: -6.71%
CNC(=O)c1cnc2sc(N3CCCCCC3)nn2c1=O,inactive,
CCc1ccc(NC(=O)C(Cc2ccccc2)NS(=O)(=O)c2ccc3c(c2)c(=O)n(C)c(=O)n3C)cc1 (stereo unspecified),,inactive: 0.659%
CCCOc1ccc(Oc2nc(NCC(C)C)nc(N(C)C)n2)nn1,,inactive: -15.3%
Cc1cccn2c(=O)cc(CSc3nnc(NC(=O)c4ccc(F)cc4)s3)nc12,,inactive: -8.17%
O=C(NCCc1ccccc1)c1ccc(Cn2c(SCc3ccccc3)nc3cccnc32)cc1,,inactive: 1.32%
COc1cccc(NC(=O)Cn2nc(C)c3c(C)n(-c4ccccc4)nc3c2=O)c1,,inactive: -1.46%
CCC(Sc1nnc(-c2ccc(OC)c(OC)c2)c(-c2ccc(OC)c(OC)c2)n1)C(=O)NC1CCCC1 (stereo unspecified),,inactive: -4.55%
COc1ccc(Cl)cc1NC(=O)Cn1c(=O)c2ccccc2n2nncc12,inactive,

SMILES,outcome,"activity change, negative = inhibition"
CCC(C(=O)Nc1ccc(C)c(Cl)c1)n1c(=O)c(-c2ccccc2NC(C)=O)nc2ccccc21 (stereo unspecified),,inactive: 0.955%
Cc1cccc(C)c1NC(=O)c1sc(-n2nc(C)c(Cc3ccc4c(c3)OCO4)c2C)nc1C,,inactive: -3.49%
Cc1nc(-n2nc(C)c(CCC(C)C)c2C)sc1C(=O)Nc1cccc(Cl)c1,,inactive: -21.5%
CCN(C(=O)CSc1nc2ccccc2nc1Cc1ccc(F)cc1)c1cccc(C)c1,,inactive: 42.6%
COc1cc(CNCCSc2nnnn2C)ccc1OCc1ccc(Cl)cc1Cl,,inactive: -19.1%
Cc1nccn1CC1CCc2c(c3ccccc3n2C)C1=O (stereo unspecified),,inactive: 1.4%
Cc1ccc(NC(=O)Cn2nc3c(cc2=O)CCCC3)cc1Cl,,inactive: -17.8%
COc1cc(NC(=O)N2CCC(CN3CCCCCC3)CC2)cc(OC)c1OC,inactive,
COc1ccc(NC(=O)C2CCC(CNS(=O)(=O)c3ccc(Br)s3)CC2)c(OC)c1 (stereo unspecified),,inactive: -1.44%
CC(C)CC(C(=O)NCC1CCN(Cc2ccc(F)cc2)CC1)N1Cc2ccccc2C1=O (stereo unspecified),,inactive: -7.87%
CC(=O)c1ccc(NC(=O)CCc2c(C)nn(-c3ccc4nnc(C)n4n3)c2C)cc1,,inactive: -10%
CCc1ccc(NC(=O)Cn2cc(S(=O)(=O)c3ccc(F)cc3)c(=O)c3cc(OC)ccc32)cc1,,inactive: 42%
CC(C)Nc1nc2c(-c3cccc(Br)c3)nnn2c2ccccc12,,inactive: 21.7%
COC(=O)C1=C(C)N(C(C)C)C(=O)C1(NC(=O)c1ccc(C(C)(C)C)cc1)C(F)(F)F (stereo unspecified),,inactive: 7.42%
Cc1ccccc1Cn1c(=O)n(CCC(=O)NCc2ccco2)c(=O)c2sccc21,,inactive: 7.47%
CCn1cc(C(=O)N2CCN(c3cc(Cl)ccc3C)CC2)c(=O)c2cc(S(=O)(=O)N3CCCCC3)ccc21,,inactive: 4.99%
O=C(NCCn1cc(SCc2ccc(F)cc2)c2ccccc21)c1cccs1,,inactive: -12.9%
CCc1nc(-c2ccc(C)c(S(=O)(=O)N3CCN(c4ccc(C(C)=O)cc4)CC3)c2)no1,,inactive: -2.87%
Cc1ccccc1C(=O)N1c2ncnn2C2(CCCCC2)[C@@H]2CCCC[C@@H]21,,inactive: -11.8%
O=C(CSc1nc(-c2ccccc2)nc2cc(=O)[nH]n12)Nc1ccccc1,inactive,
CCCc1cc(=O)[nH]c(Nc2ccc(OCC)cc2)n1,,inactive: -0.796%
COc1ccccc1NC(=O)C1=C(C)Nc2nc(-c3ccco3)nn2C1c1ccccc1F (stereo unspecified),,inactive: -1.79%
Cn1nnnc1SCCNCc1ccc(Cl)c(Cl)c1,inactive,
CC(=O)NC[C@H]1CN(c2ccc(N3CCOCC3)c(F)c2)C(=O)O1,,inactive: 32.6%

SMILES,outcome,"activity change, negative = inhibition"
Cc1ccc(NC(=O)CSc2nc(-c3ccco3)nc3cc(=O)[nH]n23)cc1,,inactive: 5.16%
COc1cccc(CCNC(=O)c2cnc3sc(N4CCOCC4)nn3c2=O)c1,,inactive: 1.65%
Cc1ccc(Cn2c(C)c3cnn(CC(=O)NCCc4ccc(Cl)cc4)c(=O)c3c2C)cc1,,inactive: 4.12%
Cc1cccc(S(=O)(=O)c2cn(C)c3cc(N4CCN(c5ccccc5)CC4)c(F)cc3c2=O)c1,,inactive: 2.31%
Cc1ccccc1C(=O)N1CCC(C(=O)Nc2ccc(F)cc2F)CC1,,inactive: 7.57%
COc1ccc(CNC(=O)c2ccc(NC(=O)N3CCSc4ncccc43)cc2)cc1,inactive,
CCCNC(=O)CN1CCN(c2ccc(NC(=O)c3ccc(OC)cc3)cc2C(=O)O)CC1,,inactive: -9.1%
CCOC(=O)c1cccc(NC(=O)NC(C)c2c(-n3cccc3)sc3c2CCN(C)C3)c1 (stereo unspecified),,inactive: 0.972%
Cc1cc2c(cc3c(SCC(=O)Nc4ccc(Cl)cc4F)nncn32)o1,inactive,
Cc1nc(N2CCOCC2)c2c(C(=O)N3CCN(c4ccccc4)CC3)c(C)oc2n1,,inactive: -6.31%
Cc1ccc(S(=O)(=O)c2nc(-c3ccccc3F)oc2NCc2ccccc2)cc1,,inactive: 9.25%
COc1ccc(CC(=O)N2CCc3cc(OC)c(OC)cc3C2COc2ccc3c(C)cc(=O)oc3c2)cc1OC (stereo unspecified),,inactive: 7.06%
O=C(COc1ccccc1F)Nc1ccc(OCc2cc(=O)n3ccccc3n2)cc1,inactive,
COCCCN1C(=O)c2oc3ccccc3c(=O)c2C12C(=O)N(C)c1ccccc12 (stereo unspecified),inactive,
O=c1ccc2cc(S(=O)(=O)Nc3ccc(OC(F)(F)F)cc3)ccc2[nH]1,,inactive: 3.4%
Cc1ccc(CNC(=O)CSC2=Nc3ccccc3N=C(c3ccc(F)cc3)C2)cc1,,inactive: 5.21%
COC(=O)c1ccc(Cn2c(SCc3ccc(F)cc3)nc3ccncc32)cc1,,inactive: -10%
CCOc1ccc(NC(=O)CCc2c(C)nc3c(-c4ccccc4)c(C)nn3c2C)cc1,inactive,
COc1cccc(Cn2c(-c3nonc3NC(C)=O)nc3ccccc32)c1,inactive,
COc1cccc(-c2noc(-c3cc(C(C)C)[nH]n3)n2)c1OC,,inactive: -4.41%
CCc1ccc(OCC(=O)Nc2ncn[nH]2)c(Br)c1,,inactive: 12.5%
CCOc1ccc(Nc2nn(-c3ccc(OC(F)(F)F)cc3)nc2C(C)=O)cc1,,inactive: -2.87%
Cn1c2ccccc2c2cnn(CC(=O)Nc3ccccc3F)c(=O)c21,,inactive: -5.14%
CC(C)CCn1c(=O)c2cccnc2n(CC(=O)Nc2ccccc2F)c1=O,,inactive: -4.25%

SMILES,outcome,"activity change, negative = inhibition"
Cc1cc(C)cc(NC(=O)c2c(C)oc3nc(C)nc(N4CCCC4)c23)c1,,inactive: -7.25%
O=C(Cn1c(=O)nc(-c2ccccc2F)c2cc(Cl)ccc21)NCCCc1ccccc1,,inactive: 9.89%
Cc1cccc(NC(=O)c2sc3nc(-c4cc5ccc(O)cc5oc4=O)[nH]c(=O)c3c2C)c1,,inactive: -1.14%
CNC(=O)c1ccc2c(c1)N(Cc1ccccc1Cl)C(=O)c1ccccc1S2,inactive,
O=C(COc1ccc(F)cc1)NCc1ccc2c(c1)CCN2C(=O)c1ccccc1,,inactive: -5.21%
COc1ccccc1CNC(=O)CCNS(=O)(=O)c1ccc2c(c1)oc(=O)n2C,,inactive: -4%
COc1ccc(CNC(=O)C2CCCN(c3nnc(C)c4c(C)n(-c5ccc(C)cc5)nc34)C2)cc1 (stereo unspecified),,inactive: -28.7%
CCOc1c(Cl)cc(C(=O)N(Cc2ccc(N(C)C)cc2)Cc2ccco2)cc1Cl,inactive,
COc1ccc2c(c1)c(CC(=O)OCC(=O)O)c(C)n2C(=O)c1ccc(Cl)cc1,,inactive: -27.9%
Cc1cccc(CNC(=O)CCCN2C(=O)CCn3nc(-c4cccn4C)cc32)c1,,inactive: 0.658%
Cc1ccc(-n2nc(C)c3nc(CCC(=O)Nc4cccc(F)c4)c(=O)n(C)c32)cc1,,inactive: 6.17%
Clc1ccc(-c2noc(-c3cccnc3NCc3ccco3)n2)cc1,,inactive: -5.04%
Cc1ccc(C)c(Cn2c3ccccc3c3cnn(CC(=O)NCCc4ccccc4)c(=O)c32)c1,,inactive: -0.864%
Cc1ccc2c(c1)c1c3n2CCN(C(=O)c2cccc(C(F)(F)F)c2)C3CCC1 (stereo unspecified),,inactive: -19.2%
CCc1cccc(C)c1Nc1c(-c2ccsc2)nc2ncccn12,inactive,
COc1ccc(N2CCN(Cc3nnc(-c4ccc5c(c4)OCO5)o3)CC2)cc1,,inactive: -1.82%
O=S(=O)(c1ccc(Cl)cc1Cl)n1ccnc1,inactive,
CCOc1ccccc1N(C)C(=O)c1c2c(nc3ccccc13)C(=O)N(C1CCCCC1)C2,,inactive: -20%
Cc1ccc2c(=O)cc(C(=O)Nc3sc4c(c3C(=O)NCC3CCCO3)CCCC4)oc2c1 (stereo unspecified),,inactive: -2.67%
COc1ccc(C2CC(=O)c3cc(-c4nc(-c5cccc(Cl)c5)cs4)c(=O)[nH]c3C2)cc1 (stereo unspecified),,inactive: 18.8%
CCC(Sc1nc2ncccc2o1)C(=O)Nc1ccc(OC)c(OC)c1 (stereo unspecified),,inactive: -8.32%
CCC1CN(C(=O)N2CCC(C(=O)N3CCN(c4ccccc4F)CC3)CC2)c2ccccc2O1 (stereo unspecified),inactive,
O=C(NCc1ccccc1)C(=O)Nc1c2c(nn1-c1ccccc1)CSC2,,inactive: -1.31%
O=C(Cn1ncc2c3ccccc3n(Cc3ccc(F)cc3)c2c1=O)NCc1ccccn1,,inactive: 6.62%
